{"source": "the supplement of paper PMC12340641", "note": "Over roughly 1,000 compounds, “relative growth recovery (pomalidomide 10 uM = 100%, DMSO = 0%)” has its median near -1.6; the highest 2% begin near 21. The list shows a part of the results."}
{"test_system": "HEK293FT dCK*-IKZF1", "test": "relative growth recovery (pomalidomide 10 uM = 100%, DMSO = 0%); higher = more growth rescue (IKZF1 fusion degradation)", "conditions": "compound concentration: 5 uM; AraC concentration: 0.3 uM; overnight pretreatment + 4 days AraC", "method": "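Growth recovery screen of the molecular-glue-like (Specs) library. HEK293FT cells expressing a dCK*-IKZF1 fusion (primary) or dCK* alone (counter) were pretreated overnight with compound at 5 uM, then given 0.3 uM AraC for 4 days. Hoechst nuclei were counted by imaging. Primary: normalised to pomalidomide (100%) and DMSO (0%), mean of 2 replicates. Counter: normalised to no-AraC (100%) and AraC+DMSO (0%), single replicate.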", "units": {"relative growth recovery": "%"}}
{"smiles": "CCCc1cnc(Nc2cccc(C3(C(=O)OC)CCN(C(=O)C4CCCCC4)CC3)n2)s1", "relative growth recovery": -5.49}
{"smiles": "COC(=O)C1(c2cccc(Nc3ncc(C)s3)n2)CCN(C(=O)C2CCCCC2)CC1", "relative growth recovery": -8.98}
{"smiles": "Cc1cnc(Nc2cccc(C3(C(=O)O)CCN(C(=O)CC(C)(C)C)CC3)n2)s1", "relative growth recovery": 1.77}
